# Laboratory results published in publication PMC12136788.
# Some of the results follow.
# T1: UNK ZnF1-3 (human, UniProt Q9C0B0 31-174)
# T1 sequence: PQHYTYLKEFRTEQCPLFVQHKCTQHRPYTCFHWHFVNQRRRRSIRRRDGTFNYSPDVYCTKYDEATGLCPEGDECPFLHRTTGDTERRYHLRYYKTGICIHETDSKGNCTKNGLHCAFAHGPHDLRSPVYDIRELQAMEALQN
# B1: 98667831_98668982_2498_CDS_ENSG00000065150_ENST00000490680|human|control|control (ssRNA)
# RNA: GGGAGUUCUACAGUCCGACGAUCCUCAUCUUGUAGUGACUCUUCGACCUGUUCAUCAUAGUCUUCAUCUUGUCUUUUAACUUGUCGUAAUUCUUGAUUUUUAAAAUGUUCUUCAAGCUUUGCUUUCAAUAUACCUCCCAGUUCCAACAGAGGAUUGAGCAUCA
# B2: 17019923_17020043_2989_CDS_ENSMUSG00000059273_ENSMUST00000098789|mouse|control|control (ssRNA)
# RNA: GGGAGUUCUACAGUCCGACGAUCUGGACGCUGCCGGGUGUUUGGAGGCCCAGGGGGUGUGGAACGGUGUAGCCUAGGAUCUAGAGCAGGUAGGGACUGCAGGGCAGCAGGCACUGGGGGCACGUCCUGCUUGGGGAUGGGCAGCAACAGAGGAUUGAGCAUCA
# B3: chr11:105962086:105962087:+_ENSG00000149313_ENST00000278618|hu_hu|FALSE|FALSE (ssRNA)
# RNA: GGGAGUUCUACAGUCCGACGAUCGCCUAUAUCCAAGUUUAAUGGAGAUAGAUCAAAUUCAAGCCGCUGCAAUUCAAAUCCUAGUCCAACACCAAUGGCUUUUAUGAAGCUUUCCUUAAGUGCCCAAUUCCUAUAAAACAUAUCCAACAGAGGAUUGAGCAUCA
# B4: chr11:134117265:134117266:+_ENSG00000151502_ENST00000281187|hu_hu|motif|central (ssRNA)
# RNA: GGGAGUUCUACAGUCCGACGAUCGUUGGAAAAUGAACGUGUGUUGUCAGUUGGGAGGCAAAGGAAUUGACAAAUGCUUCGGGUUAGAAUAUCAGCUAGGAAAAGGAGGGAUACAGAGCCUGACCUCAUGCUCUGAAAAGGCAACAACAGAGGAUUGAGCAUCA
# B5: chr4:83276511:83276512:-_ENSG00000138668_ENST00000353341|hu_hu|motif|central (ssRNA)
# RNA: GGGAGUUCUACAGUCCGACGAUCCUUCACCACCUGUUGGGGAUAAGUUGCAAAUGGAAUAAUUUAGUAUGGUUUGUAGCGGUUUUGAUGACCACCUCGCCUGGAUACCUUCCCAUAACCACUCUGCUGGUCACCACCUCUUCCCAACAGAGGAUUGAGCAUCA
# B6: chr2:177202359:177202360:+_ENSG00000128654_ENST00000249442|hu_hu|FALSE|FALSE (ssRNA)
# RNA: GGGAGUUCUACAGUCCGACGAUCCAUUCAAGUAAAACAUAUUUCAAAAGUUAAGACUCCUGAGACUAACACAUAACUCUAUGACAGCCUGCCUUUACCACGAUCUUCAAAAUAGUGCUGUUCAAUUCUCCUACAGAAAGCAAGCAACAGAGGAUUGAGCAUCA
# B7: chr15:31387667:31387668:-_ENSMUSG00000039100_ENSMUST00000090227|mus_hu|motif|central (ssRNA)
# RNA: GGGAGUUCUACAGUCCGACGAUCUUUAAUACUAUAUGAAAAUUCUUUUAUAGUUUCUGAAGACCUAUGUUAUACGCUUUCGGUGAGAACUUCUAAAUUAUCGUUCAAAAACAAACACUACCCUUACGAUAUACCUUUAGCAUUCAACAGAGGAUUGAGCAUCA
# B8: chr8:87797514:87797515:-_ENSMUSG00000031696_ENSMUST00000034131|mus_hu|FALSE|FALSE (ssRNA)
# RNA: GGGAGUUCUACAGUCCGACGAUCAUUAUGGAAUCCACCUGGUCUUGAGAGACAAUUUCUGUGUUAUAAUCCAGAACAUUACUAAGCACAUAACAACUCAUGCUCUUUCUGGACUCGUAGUCAAAGUACUCAAAGAGUGGGUGACAACAGAGGAUUGAGCAUCA
# B9: chr22:19452774:19452775:-_ENSG00000070010_ENST00000399523|hu_hu|hu_hu_hu_mus_False|88_98 (ssRNA)
# RNA: GGGAGUUCUACAGUCCGACGAUCCUUCUCAUUGUAGUUGAUGGCAAUCACAUCCCCAGUCGUCAGACAGGCGAAGUUUCUCAAUGCAUUUUCUAAUACCGCUUUAGGGUUGGUAAUAUCCAGGAAGUCUGGGCUCUGAGGCUGCAACAGAGGAUUGAGCAUCA
# B10: chrX:140365796:140365797:-_ENSMUSG00000031285_ENSMUST00000033642|mus_mus|mus_mus_mus_hu_False|1_1 (ssRNA)
# RNA: GGGAGUUCUACAGUCCGACGAUCCUUCUCAUUACUCAGUGCCUGCAAGGUUCUGGUUCGGUAGAAGCUACAGUGGGCGCUGUGAGUGGGGCUAGGCAACCCAUUCAUCCGGGAGCCUCGCAUGUUCCUGGAUGUCUUGUCUCGCAACAGAGGAUUGAGCAUCA
# B11: chr1:184378663:184378664:+_ENSMUSG00000026510_ENSMUST00000117245|mus_hu|FALSE|FALSE (ssRNA)
# RNA: GGGAGUUCUACAGUCCGACGAUCUAAGAAAGGCAGUAAUUUAGUUGGGCUGAGUGGCCGAGGAAUUCUUUCGUUUUCAUGGUUCUCCUGAACUGAAGAAACAGGCUCUGUUUCAGGUUCUGGACUGCCAGGCUUGCCCUGGCUCAACAGAGGAUUGAGCAUCA
# B12: chr13:100192331:100192332:-_ENSMUSG00000052727_ENSMUST00000064762|mus_mus|motif|central (ssRNA)
# RNA: GGGAGUUCUACAGUCCGACGAUCUAGCAAAUGAUUAAAUUUAUAAAACGAGUAUUAGAAAGCUCCUAAAUUUCAUAAGCGGUUGGAAACACUUAAAACAUUCAUAUACACUGGGGAAACCAUUCACUAUGAUAUGUAACGUUACAACAGAGGAUUGAGCAUCA
# B13: chr4:115894766:115894767:+_ENSMUSG00000028698_ENSMUST00000030464|mus_hu|mus_mus_mus_hu_True|88_108 (ssRNA)
# RNA: GGGAGUUCUACAGUCCGACGAUCUUCACACGGAAAUUGUACUUCGGGUUUCCAACGGGCCAGUACCAGUCCGGCCAAACUACCCGAACAGGGUCCUCCCCCUCUCUCCUACAGAACACAACAAAAUGCCCCCGAACUUUCAAGCAACAGAGGAUUGAGCAUCA
# B14: chr1:37488339:37488340:+_ENSMUSG00000026111_ENSMUST00000027285|mus_hu|FALSE|FALSE (ssRNA)
# RNA: GGGAGUUCUACAGUCCGACGAUCAGCAGGGUCAUCUCUGGCCCACUGGUCCUUCGUCUGUUUUCGAUAAUGAAAAUUUCUGUAAACUCUCUGUGGGGAUGUGAACAGGUAGAGCAUCUGCCAGGCAGCAAAUUCAAAGUCCAUCAACAGAGGAUUGAGCAUCA
# B15: chrX:20248820:20248821:+_ENSMUSG00000001924_ENSMUST00000001989|mus_mus|mus_mus_mus_hu_True|58_68 (ssRNA)
# RNA: GGGAGUUCUACAGUCCGACGAUCGGCGAAGUCCGUCACCACAAAGUCAGGUUCUGCCAGUGAGGCCGGCAAGGAUUUAAAACUAAUCUUCUUAGGUACUUUGACCUGACUGACGAUGCCUCCACGGAUGUAGUCGGAGAAGUUCAACAGAGGAUUGAGCAUCA
# B16: chr5:128448638:128448639:+_ENSG00000066583_ENST00000173527|hu_mus|hu_hu_hu_mus_False|8_18 (ssRNA)
# RNA: GGGAGUUCUACAGUCCGACGAUCGGCACUCGCCUUAAUUAGGUUCUGAAUUUCCUUGAACUUCGGGUGGUCUUUGUCAGCCACCAGCUGUAGGAGGACAGCCUCACUAGUGGUCACUAUGAUCCCGGUUCGAGCGAGACGCUCCAACAGAGGAUUGAGCAUCA
# B17: 88437549_88438432_921_CDS_ENSMUSG00000028059_ENSMUST00000029694|mouse|control|control (ssRNA)
# RNA: GGGAGUUCUACAGUCCGACGAUCCACUUCUGGCUCCAUCUGCAACUCUUCCAGCAUCCCAGUGCGAAAGAGGCGGGUCAUAAUCUUCAAGGUUCUCACGUGGUGCAGCUCUGUCUGGAUCAGCUCAUAGAUGACAUCUUGCUUCAACAGAGGAUUGAGCAUCA
# B18: chr5:4754414:4754415:-_ENSMUSG00000044674_ENSMUST00000054294|mus_mus|FALSE|FALSE (ssRNA)
# RNA: GGGAGUUCUACAGUCCGACGAUCGAGUAAGCAAAGUGUAUUGUUGAUUGUGUACAACUUUUAGAUUGCAAAGACACAUCUAAUUGCAGUUUGGCUAAAACCAGAAAACAGCGUUUCACUUGGAGUAACUCCACUUCACUGAAACAACAGAGGAUUGAGCAUCA
# B19: 215793453_215793573_2295_CDS_ENSG00000136636_ENST00000259154|human|control|control (ssRNA)
# RNA: GGGAGUUCUACAGUCCGACGAUCAUUUUCAGGGACAGCUCUUUCUACAUUUCUGUUCAAAUUAAUAGUCUGGAAGUCCCUAUAACUGUGAAAGCUCUCAGUCCUUCUUGCCCUUGCUAAUAAAGGACUUUCUCUGUAAGGCCUCAACAGAGGAUUGAGCAUCA
# B20: chr3:118931466:118931467:-_ENSG00000121578_ENST00000480814|hu_hu|FALSE|FALSE (ssRNA)
# RNA: GGGAGUUCUACAGUCCGACGAUCACUGUGAUGUUGAUAUAUAAAGGAUUGUGUUCCACAGAUACUAAUUUAUAAGAACAACUACUCAACCCAUCUGUUCUCCAGACUCGUGACACUUGGUGUAAGAGCUUCAUCCGUUCUGCGCAACAGAGGAUUGAGCAUCA
# B21: 57940872_57940992_4853_CDS_ENSMUSG00000003226_ENSMUST00000003310|mouse|control|control (ssRNA)
# RNA: GGGAGUUCUACAGUCCGACGAUCUGAUACACAAGAUGUAGGCUGAUUCUGCUUAUUUGGAUACUGACAAGCAAUACAGUGAGUAGCACUGGCUUCAUUUCGGACAAAACACAAGCUACAGUCCCACUGUCCUUCUUUCUUGGCCAACAGAGGAUUGAGCAUCA
# B22: chr1:58468927:58468928:-_ENSMUSG00000026034_ENSMUST00000148330|mus_mus|mus_mus_mus_hu_False|98_98 (ssRNA)
# RNA: GGGAGUUCUACAGUCCGACGAUCAAUUACUGAAAAAUGAAAGAUGUACCUUAGCUAUGUACUUAAUGAACCAAAUUACCCAAACAAAAUAAACAUGGCAAUAUAAAAAUGUUAAGAAUUUACAAAGCUGUACAAAAUAACUUACAACAGAGGAUUGAGCAUCA
# Target: T1, UNK ZnF1-3
# Experiment: nsRBNS (natural sequence RNA bind-n-seq); RBNS binding buffer (assumed for nsRBNS): 25 mM Tris pH 7.5, 150 mM KCl, 3 mM MgCl2, 0.01% Triton X-100, 500 ug/ml BSA, 20 U/ml SUPERase-In, 4 C; UNK is unkempt and MSI1 is Musashi-1; names of the RNAs are library labels; protein concentration not given here; high values mean tight binding
row,Binder,binding signal
1,B1,0.433 enrichment R
2,B2,1.45 enrichment R
3,B3,1.37 enrichment R
4,B4,1.5 enrichment R
5,B5,0.898 enrichment R
6,B6,1.41 enrichment R
7,B7,0.873 enrichment R
8,B8,1.07 enrichment R
9,B9,0.631 enrichment R
10,B10,0.534 enrichment R
11,B11,0.562 enrichment R
12,B12,1.23 enrichment R
13,B13,1.15 enrichment R
14,B14,1.79 enrichment R
15,B15,0.876 enrichment R
16,B16,0.466 enrichment R
17,B17,0.961 enrichment R
18,B18,0.673 enrichment R
19,B19,0.648 enrichment R
20,B20,0.904 enrichment R
21,B21,0.737 enrichment R
22,B22,2.47 enrichment R
